# From the supplement of paper PMC3334620
# Over roughly 33,000 sequences, “E-score (-0.5 to 0.5)” has its median near -0.035; the highest 2% begin near 0.34. Some of the results follow.
# Target: T1, Mot3 (UniProt P54785)
# T1 sequence: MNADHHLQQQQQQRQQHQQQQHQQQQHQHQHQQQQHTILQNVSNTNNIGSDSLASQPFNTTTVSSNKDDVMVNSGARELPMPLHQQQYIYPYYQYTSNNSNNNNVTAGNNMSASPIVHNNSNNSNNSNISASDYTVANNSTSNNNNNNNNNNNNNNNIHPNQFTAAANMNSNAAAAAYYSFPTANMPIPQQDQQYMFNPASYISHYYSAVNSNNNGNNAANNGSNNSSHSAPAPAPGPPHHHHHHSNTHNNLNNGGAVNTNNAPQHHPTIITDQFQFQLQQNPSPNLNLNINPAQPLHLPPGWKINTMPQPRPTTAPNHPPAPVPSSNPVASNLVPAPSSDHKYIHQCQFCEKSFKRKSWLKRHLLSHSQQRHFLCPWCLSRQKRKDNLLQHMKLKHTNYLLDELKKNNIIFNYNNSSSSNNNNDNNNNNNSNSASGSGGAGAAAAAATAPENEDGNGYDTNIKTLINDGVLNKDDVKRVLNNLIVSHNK
# Assay: PBM E-score (8-mer binding enrichment) (E-score (-0.5 to 0.5)); higher = stronger / more preferred TF binding; most listed sequences are background and not binding sites
# Details: protein concentration: 200 nM; construct: GST-full length
# Method in brief: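 Universal all-10-mer Agilent arrays, double-stranded by primer extension on fresh or once-stripped slides, were probed with about 100-200 nM GST-tagged yeast transcription factors made by PURExpress. Fluorescent anti-GST detected bound protein, and masliner normalised the scans. E-scores from the Universal PBM Analysis Suite were given to each ungapped eight-base word pooled with its reverse complement.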
row,Sequence,PBM E-score
1,AATGTTAG,0.198
2,ACTGGAAT,-0.0703
3,CGCAGGGC,-0.0529
4,GAGAGAAC,-0.0126
5,ATCTCTCA,-0.0314
6,GCTGGGAA,-0.198
7,TAAGTGTA,0.139
8,CGCACCCC,-0.18
9,TAACAGAA,0.227
10,TTAGCCAA,-0.119
11,ACTGCGGC,-0.227
12,CCGGGTAG,-0.218
13,CGTTCGCA,-0.021
14,CGTAACGA,-0.0547
15,CGCTTAAA,0.0156
16,CGACCCCG,-0.139
17,CATTTTGA,-0.063
18,GCATACAC,0.14
19,AAATATAG,0.108
20,GAGGCTCA,-0.313
21,AGACTACG,-0.238
22,CCTTTATC,-0.0342

row,Sequence,PBM E-score
1,CTCCCAGC,-0.0785
2,ATTATTCA,0.103
3,TAAGGATA,-0.102
4,AAGGAAGC,-0.157
5,TAGAACCA,0.0894
6,ACCCCGCG,-0.222
7,GTAGCAGA,-0.0399
8,CCCCCAAC,-0.2
9,ATCGGACC,-0.261
10,GACGCCAC,-0.222
11,ATGCCGGC,-0.108
12,ACGCTAAC,0.0757
13,GCGACCGC,-0.25
14,CTAGATGA,-0.0866
15,AGAGGTGC,-0.142
16,GTAATAAC,0.294
17,GAGGTTTA,-0.0892
18,GTGCTGGA,-0.196
19,CCTGTGGA,0.0704
20,GCAAGATA,-0.00371
21,ATGGTGGA,-0.265
22,AACTGTCT,0.00608

row,Sequence,PBM E-score
1,CCGTTTAG,-0.0137
2,AGGGTCGA,-0.133
3,AGCAGTGA,-0.155
4,CCTCAAAG,-0.0515
5,ATATGCAG,-0.0866
6,GCTGGTCA,-0.166
7,CAATTTGC,-0.00949
8,GCCCTTCC,-0.266
9,ATTTAGAG,0.0596
10,AAGCGTTA,-0.124
11,AGTGAGTC,-0.11
12,ACCTCAGT,-0.176
13,CGAGAAAC,-0.167
14,AACCGCTT,-0.00052
15,ATTCGCTG,-0.166
16,ATCGGGAG,-0.19
17,GACCGCGC,-0.205
18,AAGCGGAC,-0.199
19,ACAATGAG,-0.0555
20,CCACGCTC,-0.186
21,ACGGTGAC,-0.0848
22,ATCGACAC,0.195

row,Sequence,PBM E-score
1,CTTCACAA,0.0967
2,CACGGTGG,-0.0381
3,ACCGGGGC,-0.341
4,GCGAAGTA,0.0402
5,CCCCGGAA,-0.143
6,CAACCTGG,-0.0919
7,ACATAAAA,0.212
8,AAATCAGA,-0.0937
9,CTGCCGAC,-0.214
10,GATAGTAC,0.0135
11,AACAGTGG,-0.0626
12,ATCTTTCG,-0.158
13,CCTACCCC,-0.214
14,CCGTCATA,-0.0245
15,CAATTAGC,-0.104
16,ACACTTTA,0.23
17,CTGATAAG,0.0287
18,TACCATGA,-0.277
19,AGGGCCCG,-0.299
20,ACCAATCA,-0.00666
